Read-outs that look alike come from different tables or passages of the source. Where no end group is shown, it is not given here.

In experiment [1] the test system is Staphylococcus aureus (COL). The experiment is classed as cell-based. To be noted: data not shown.
In experiment [2] the test system is Neisseria gonorrhoeae (FA19). It is filed as cell-based. To be noted: data not shown.
Experiment [3] deals with A/Puerto Rico/8/1934 (H1N1) virus. The following applies: plaque assay in MDCK-L cells with trypsin; for effect on virus titer in vitro: PR/8 incubated with peptide for 1 hour at room temperature in DMEM.
For experiment [4] the test system is unchanged. It is filed as in vivo, BALB/c mice.
Experiment [5] has the same test system. The experiment is classed as in vivo, BALB/c mice. The following applies: for survival compared with saline-treated infected mice: 14 days.
Where [6] appears, read: female Balb/c mice, 10 MLD50 PR/8 intranasal day 0, nebulized 200 µl of 500 µg/ml once daily day -1 to day 7, monitored 14 days, groups of 5.
Setting [7] is: female Balb/c mice, 10 MLD50 PR/8 intranasal, nebulized 200 µl of 500 µg/ml once daily day -1 to day 7, Kaplan Meier, log rank test.

Take “LLGDFFRKSKEKIGKEFKRIVQRIKDFLRNLVPRTES [LL-37, human cathelicidin peptide generated from hCAP-18]”: the “antimicrobial activity of the preparation” value (“antimicrobial activity” below) in experiment [1] and in experiment [2] was “confirmed” each time. Also, the “reduction in virus titer in vitro” value in experiment [3] (PR/8 incubated with physiologically relevant concentrations of peptide for 1 hour at room temperature in DMEM) was “approximately 90%”. Further, the “reduction in lung virus titer at 3 days post infection” value in experiment [4] (10 MLD50 PR/8 intranasal, nebulized 200 µl of 500 µg/ml once daily day -1 to day 2, euthanized day 3, compared to control-treated mice) is listed as 70-80%. The “body weight loss compared with saline-treated infected mice” value in experiment [5] (setting [6]) is “significantly decreased body weight loss”. Moreover, in experiment [5] (setting [7]), the “survival compared with saline-treated infected mice” value is “significant increase in survival”. Also, the “maximum weight loss observed” value in experiment [5] (female Balb/c mice, 10 MLD50 PR/8 intranasal, nebulized 200 µl of 500 µg/ml once daily day -1 to day 7, monitored 14 days) is roughly 20%. For the same molecule, in experiment [5] (female Balb/c mice, 10 MLD50 PR/8 intranasal, nebulized 200 µl of 500 µg/ml once daily day -1 to day 7, monitored up to 14 days post infection, groups of 5), the “survival (mice survived)” value is “approximately 60%”.
Turning to “RGGRLCYCRRRFCVCVGR-NH2 (also: bicyclic or more (positions not given here)) [Protegrin-1, porcine neutrophil-derived cathelicidin peptide with two disulfide bridges]”, the “antimicrobial activity” value in experiment [1] and in experiment [2] was “confirmed” throughout. In addition, the “effect on virus titer in vitro” value in experiment [3] is “did not demonstrate any anti-influenza activity”. Also, the “lung virus titer at 3 days post infection compared with control-treated mice” value in experiment [4] (10 MLD50 PR/8 intranasal, nebulized 200 µl of 500 µg/ml once daily day -1 to day 2, euthanized day 3, plaque assay) is “did not show any statistically significant increase in survival (Figure 2E), or reduction in lung virus titers”. The “body weight loss compared with saline-treated infected mice” value in experiment [5] (setting [6]) was “lost weight to the same extent as the control-treated animals”. Also, in experiment [5] (setting [7]), the “survival compared with saline-treated infected mice” value was “did not show any statistically significant increase in survival”.
“GLLRKGGEKIGEKLKKIGQKIKNFFQKLVPQPEQ [mCRAMP, mouse cathelicidin peptide]”: the “antimicrobial activity” value in experiment [1] and in experiment [2] was “confirmed” in each case. Further, the “effect on virus titer in vitro” value in experiment [3] is given as “significant decrease in virus titer”. For the same molecule, the “reduction in lung virus titer at 3 days post infection” value in experiment [4] (mouse, in vivo) was 70–80%. Moreover, in experiment [5], the “survival compared with saline-treated infected mice” value was “significantly enhanced survival”. Besides, in experiment [5] (mouse, in vivo), the “body weight loss compared with saline-treated infected mice” value is recorded as “lost less weight”.
Regarding `CC(=O)N[C@H]1[C@H]([C@H](O)[C@H](O)CO)OC(C(=O)O)=C[C@@H]1N=C(N)N` [zanamivir, reference compound], the “survival compared with saline-treated infected mice” value in experiment [5] is given as “significant increase in survival”. Also, in experiment [5] (mouse, in vivo), the “body weight loss compared with saline-treated infected mice” value is listed as “significantly decreased body weight loss”, the “maximum weight loss observed” value is listed as roughly 20% and the “survival (mice survived)” value was “approximately 60%”.
Take “RSLEGTDRFPFVRLKNSRKLEFKDIKGIKREQFVKIL [sLL-37, reference compound]”: the “effect on virus titer in vitro” value in experiment [3] is “no effect”. Further, the “lung virus titer at 3 days post infection compared with control-treated mice” value in experiment [4] (mouse, in vivo) was “no effect”. In addition, the “survival compared with saline-treated infected mice” value in experiment [5] was “either died or were required to be euthanized due to severe disease”. Moreover, in experiment [5] (mouse, in vivo), the “body weight loss compared with saline-treated infected mice” value is on record as “severe weight loss”.

Values taken from paper PMC3198734 (PLoS ONE, 2011).
